Reference: PubChem BioAssay AID1362 (SRMLSC, 2008)
The list shows a part of the results. Shown are side measurements of this screen, not its main read-out; they come without a call. Compounds called inactive in the main read-out are mostly missing here.

Assay: growth inhibition of WT strain, primary screen, mitochondrial fusion inhibitor project, WT and mutant strains, chemical genetic (AID 1362); further: tested in S. cerevisiae
Settings: mitochondrial fusion phenotypic screen, at 10 µM
With `Cc1cccc(C(=O)NC(=S)Nc2ccc(Cc3ccncc3)cc2)c1` the inhibition was 32.4%.
Compound `O=C(N1CCN(c2ccccn2)CC1)N1c2ccccc2Sc2ccccc21` has an inhibition of 35.2%.
With `CCOC(=O)c1c(C)n(-c2ccc(C)cc2)c2ccc(OCC(O)CNCC3CCCO3)cc12` (configuration not stated) the inhibition was 22.1%.
Compound `CC(C)CCN(C(=S)Nc1cccc(F)c1)C(C)c1cccs1` (configuration not stated) has an inhibition of 2.52%.
For `Cc1sc(NC(=O)c2ccccc2)c(C(c2ccc(Cl)cc2)N2CCN(CCO)CC2)c1C` (configuration not stated), the inhibition was 26.6%.
`CC(Oc1ccc2oc3ccccc3c2c1)C(=O)NC12CC3CC(CC(C3)C1)C2` (configuration not stated) gave an inhibition of 7.23%.
`CN(C)CC/C=C1\c2ccccc2Sc2ccc(Cl)cc21` showed an inhibition of 84.3%.
In the case of `CC(/C=N/n1c(C2CCCCC2)n[nH]c1=S)=C\c1ccccc1`, the inhibition was 85.5%.
Compound `CCC(C(=O)OC)n1c(-c2ccccc2)nc2ccccc2c1=O` (configuration not stated) has an inhibition of 51.2%.
In the case of `Cc1cc(C)c2sc(N(CCN(C)C)C(=O)c3c(F)cccc3F)nc2c1`, the inhibition was 37.8%.
In the case of `CCc1ccccc1N(C1=NCCCS1)S(=O)(=O)c1ccc(C(C)(C)C)cc1`, the inhibition was 8.47%.
`C/C(=N\Nc1nc2ccccc2[nH]1)c1cc2ccccc2o1` showed an inhibition of 58.6%.
In the case of `COc1ccc2[nH]c3c(NCCC4=CCCCC4)ncnc3c2c1`, the inhibition was 40.4%.
Compound `S=C(NCc1ccccc1)N1CCN(Cc2ccc3c(c2)OCO3)CC1` has an inhibition of 39.6%.
With `O=S(=O)(c1ccccc1)c1cnc(-c2ccccc2)nc1N1CCCCC1` the inhibition was 12.4%.
`CC(C)COc1ccc(CSCCNC(=S)Nc2ccccc2)cc1` showed an inhibition of 68.6%.
With `CC(=O)NCCn1c(SCc2ccc(C)cc2)nc2ccccc2c1=O` the inhibition was 22.7%.
For `CC(=O)c1ccc(-n2nnnc2SCC(=O)Nc2cccc(NC(=O)c3ccco3)c2)cc1`, the inhibition was -11.4%.
Compound `CCSc1nnc(NC(=O)COc2ccc3ccccc3c2)s1` has an inhibition of 7.97%.
`Cc1ccc(-c2nnc(N3CCC(C)CC3)c3ccccc23)cc1C` showed an inhibition of 73.6%.
Compound `O=C(NCc1ccccc1Cl)c1cnccn1` has an inhibition of 2.33%.
With `O=C(Nc1nc(-c2ccccn2)cs1)c1cc(Cl)ccc1[N+](=O)[O-]` the inhibition was 55.3%.
`Cc1nc(N2CCN(Cc3ccc4c(c3)OCO4)CC2)c2cc(-c3ccccc3)sc2n1` gave an inhibition of 63.2%.
With `Fc1ccc(N2CCN(c3nc(CN4CCOCC4)nc4scc(-c5ccccc5)c34)CC2)cc1` the inhibition was 19%.
For `Fc1cccc(-c2cc3nc4c(c(NCc5ccco5)n3n2)CCCC4)c1`, the inhibition was 79.2%.
In the case of `CCOc1ccc(-c2nnc(NC(=O)c3ccc(OCC(C)C)c(OC)c3)o2)cc1`, the inhibition was 29.5%.
`Cc1ccc(NC(/C=C/N(C)C)=C/C(=O)C(F)(F)F)c(C)c1` gave an inhibition of 67.9%.
For `COCCn1c(=O)[nH]c(=O)c2cc(C(=O)c3cc(Cl)ccc3O)cnc21`, the inhibition was 42.9%.
With `COc1ccc(N2CCN(C(=S)NC(=O)c3cccs3)CC2)c([N+](=O)[O-])c1` the inhibition was 52.2%.
`CC1CCN(c2ncnc3c2cnn3Cc2ccc(Cl)cc2)CC1` gave an inhibition of 29.9%.
Work on `COc1cc(/C=C2\SC(=S)NC2=O)ccc1OS(=O)(=O)c1ccccc1` yielded an inhibition of 44.6%.
With `CCC(CC)C(=O)c1c[nH]c(C(=O)NCc2ccco2)c1` the inhibition was 17.9%.
Work on `S=C(NCCC1=CCCCC1)NCc1ccco1` yielded an inhibition of 62.4%.
With `CCc1ccc(NC(=S)N(Cc2ccccc2)Cc2ccccn2)cc1` the inhibition was 44.7%.
For `CN1CCN(c2ccc(-c3ccnn3C(=O)Nc3cccc(C(F)(F)F)c3)cc2)CC1`, the inhibition was 34.6%.
Compound `C(=N/Nc1nc(-c2ccccc2)cc(-c2ccccc2)n1)/c1cccnc1` has an inhibition of 21.4%.
`ClC(Cl)(c1nnnn1-c1ccccc1)c1nnnn1-c1ccccc1` gave an inhibition of 85%.
Compound `Cc1ccc2nc(-c3cccc(NS(C)(=O)=O)c3)cc(-c3ccccc3)c2c1` has an inhibition of 55.1%.
Work on `CCCc1cc(-c2nc(N)ncc2-c2ccc3c(c2)OCCCO3)c(O)cc1OC` yielded an inhibition of 13.2%.
With `CCOC(=O)COc1ccc2ccccc2c1/C=C/[N+](=O)[O-]` the inhibition was 76.9%.
With `CN(Cc1ccccc1)S(=O)(=O)c1ccc(C(=O)Nc2nnc(C3CC3)o2)cc1` the inhibition was 60.3%.
With `COc1ccccc1N1CCN(C(=O)c2ccc3[nH]c4c(c3c2)CC(C)CC4)CC1` (configuration not stated) the inhibition was -1.44%.
With `O=C(c1ccc2c(=O)n(C3CCCC3)c(=S)[nH]c2c1)N1CCCCCC1` the inhibition was 91.7%.
For `C=C(C)COc1ccc(-c2nc(N)ncc2-c2ccc(OC)cc2)c(O)c1`, the inhibition was 60.5%.
With `CC1=C(C#N)C(NC(=O)c2ccc(C)cc2)(C(F)(F)F)C(=O)N1` (configuration not stated) the inhibition was -7.02%.
Compound `CC1=NN(C(N)=S)C(=O)C1N=Nc1c(C)cc(C)cc1C` (configuration not stated) has an inhibition of 42.4%.
Compound `CCOCCCNC(=O)NC12CC3CC(CC(C3)C1)C2` has an inhibition of 15.4%.
For `CC/C(=N\NC(=S)Nc1cc(C)ccc1C)c1ccc(OC(F)F)cc1`, the inhibition was 55.1%.
Compound `Cc1cc(C)nc(/N=c2/ssnc2Cl)c1` has an inhibition of 56.4%.
Work on `COCCCNC(=S)N1CCCN(c2nc3c(C)c(C)ccc3cc2C#N)CC1` yielded an inhibition of 27.2%.
`Cc1cc(CN2CCOCC2)c(O)c(C2(C)CCCCC2)c1` gave an inhibition of 70.8%.
With `COc1ccccc1N1CCN(c2nc(C)nc3c2oc2ccccc23)CC1` the inhibition was 30.4%.
Work on `Cc1cccc(-c2nnc(SCc3ccccc3)o2)c1` yielded an inhibition of -10.2%.
Compound `COc1cc(/C=N/n2cnnc2)ccc1OCc1ccccc1` has an inhibition of 2.37%.
With `CN(CC(=O)Nc1ccccc1-c1ccccc1)Cc1ccccc1Cl` the inhibition was 27.5%.
`Cn1nnc(NC(=S)NC(=O)c2ccc(-c3ccc(Br)cc3)o2)n1` showed an inhibition of 48.5%.
Compound `CN1N=C(c2ccc(Cl)cc2)CC(c2ccc(Cl)cc2)C1=O` (configuration not stated) has an inhibition of 51.1%.
In the case of `Cc1cc(OCCCCn2ccnc2)cc(C)c1Cl`, the inhibition was 68%.
For `COc1ccc(OC)c(S(=O)(=O)Nc2ccc(Oc3ccccc3)cc2)c1`, the inhibition was 2.76%.
Compound `CCC(C)n1c(=S)[nH]c2c(sc3ccc([N+](=O)[O-])cc32)c1=O` (configuration not stated) has an inhibition of 64.2%.
With `CCOc1cccc(C(=O)Nc2ccc3oc(Cc4ccc(Cl)cc4)nc3c2)c1` the inhibition was 36.2%.
With `CCCOc1ccc(Cc2c(Cl)nc(SC)nc2N(C)C)cc1` the inhibition was -18%.
With `CN1/C(=C\C(=O)Nc2ccc(Br)cc2)C(C)(C)c2ccccc21` the inhibition was 16.3%.
Compound `CC1CCCN(c2nc(-c3cccnc3)nc3scc(-c4ccccc4)c23)C1` (configuration not stated) has an inhibition of -9.7%.
In the case of `Cc1cccc(-c2cc3nc4c(c(N5CCOCC5)n3n2)CCCC4)c1`, the inhibition was 64.7%.
`CC(C)(C)c1ccc(C(=O)CC(=O)c2cc(Cl)ccc2O)cc1` gave an inhibition of 55.7%.
With `CCOC(=O)c1[nH]c2ccc(OC)cc2c1NC(=O)C(C)N1CCC2(CC1)OCCO2` (configuration not stated) the inhibition was 16%.
`Cc1ccn2c(NC3CCCC3)c(-c3ccccn3)nc2c1` gave an inhibition of 66.1%.
With `Nc1nc(-c2ccc3c(c2)CCCC3)cs1` the inhibition was 80.9%.
For `Cc1cc(C)c(NC2=NCC(=O)N2C2CCCCC2)c(C)c1`, the inhibition was 58%.
`CC1=C(C(=O)OCc2ccccc2)C(/C=C/c2ccccc2)NC(=S)N1` (configuration not stated) gave an inhibition of 22.7%.
For `COC(=O)CSc1nc(N)c2c3c(sc2n1)C(c1ccccc1)SC(c1ccccc1)C3` (configuration not stated), the inhibition was 44.1%.
For `N#C[C@H]1[C@H](c2ccccc2)[C@](C#N)(C(=O)c2ccccc2)[C@@H]2C=Cc3ccccc3N21`, the inhibition was -2.38%.
For `O=C1c2ccccc2C(=O)N1CCCCN(C(=O)c1cc([N+](=O)[O-])ccc1Cl)c1ccc(Cl)cc1`, the inhibition was 31.6%.
Work on `Clc1ccc(C2=Nn3c(nnc3-c3cc(-c4ccccc4)n[nH]3)SC2)cc1` yielded an inhibition of 10.8%.
With `CC(C)NC(=S)NC(=O)c1ccc(-c2ccccc2)cc1` the inhibition was 23.5%.
`O=C(Nc1nnc(C2CC2)o1)c1ccc(S(=O)(=O)N2CCc3ccccc3C2)cc1` showed an inhibition of 42.4%.
Work on `Cc1cnn(C(=S)NCc2ccc(Cl)cc2)c1` yielded an inhibition of 34.5%.
Compound `COCC(C)NC(=O)c1cc(-c2cccc(OC)c2)on1` (configuration not stated) has an inhibition of 30.9%.
Compound `CC(=O)Nc1ncc(Cc2cc(Cl)ccc2Cl)s1` has an inhibition of 58.5%.
`COC(=O)C1=C(Nc2ccc(C)cc2)C=C(C)C(C(=O)OC)C1c1ccc(OC)cc1` (configuration not stated) showed an inhibition of 22.1%.
`O=C(NCc1ccccc1)c1ccc(-c2ccccc2C(F)(F)F)o1` showed an inhibition of -7.13%.
For `CCOC(=O)C(=NC(C)CC)NNc1ccc(Br)cc1` (configuration not stated), the inhibition was 66.2%.
In the case of `Cc1[nH]c2ccccc2c1C(=O)COC(=O)c1c(-c2ccccc2Cl)noc1C`, the inhibition was 70%.
For `OC1(c2cccc(C(F)(F)F)c2)CCN(c2ncnc3c2[nH]c2ccccc23)CC1`, the inhibition was 20.7%.
In the case of `Cc1ccc(-c2csc(NC(=O)CSc3nc4ccccc4c(=O)n3CCCN(C)C)n2)cc1`, the inhibition was 80.5%.
Work on `Cc1ccc(CNC(=O)CCNC(=O)c2ccco2)cc1` yielded an inhibition of 4.93%.
Compound `COc1ccccc1C(=O)Nc1nnc(-c2ccc3c(c2)CCCC3)o1` has an inhibition of 33.7%.
In the case of `O=S(=O)(NCC(Nc1ccc(Cl)cc1)c1ccccc1)c1ccccc1` (configuration not stated), the inhibition was 14.1%.
For `COc1cc(SC)ccc1C(=O)NCCOc1ccc(C)c(C)c1`, the inhibition was 28.9%.
In the case of `Cc1ccc(NC(=O)c2ccccc2NS(=O)(=O)c2ccc(Cl)s2)cc1`, the inhibition was 76.4%.
`CCCCn1c(N)c(C(=S)NC(=O)CC(C)(C)C)c(=O)n(C)c1=O` gave an inhibition of 40%.
With `CCc1ccc(-c2cc(C(=O)N3N=C(C(F)F)CC3(O)C(F)F)c3ccccc3n2)cc1` (configuration not stated) the inhibition was 57.8%.
Compound `CCOc1ccc(Br)cc1C1C(C(=O)OC)=C(N)Oc2cc(N(C)C)ccc21` (configuration not stated) has an inhibition of 0.67%.
For `CC(C)n1c(CSCc2ccc(Cl)cc2Cl)n[nH]c1=S`, the inhibition was 53.9%.
Compound `O=C(C1CC1c1ccccc1)N1CCN(c2cccc(Cl)c2)CC1` (configuration not stated) has an inhibition of 56.1%.
With `Clc1ccc(CSc2nnc(-c3ccccn3)n2Cc2ccco2)c(Cl)c1` the inhibition was 30%.
Work on `CC(C)C(=O)Nc1nnc(SCC(=O)NCc2cccs2)s1` yielded an inhibition of -8.46%.
Compound `CCO[C@H]1OC(C(=O)Nc2ccccc2)=C[C@@H](c2ccc(C(F)(F)F)cc2)[C@@H]1CCCO` has an inhibition of 53.1%.
`Fc1ccc(F)c(C2=NNC(=Nc3ccccc3F)SC2)c1` showed an inhibition of 27.1%.
For `Cc1ccc(-n2nnnc2C(Cl)(Cl)c2nnnn2-c2ccc(C)cc2)cc1`, the inhibition was 92.2%.
Work on `Cc1cccc(C2(c3cccc(C)c3)CC2C(=O)Nc2ccc([N+](=O)[O-])cc2O)c1` (configuration not stated) yielded an inhibition of 80.6%.
`COc1ccc(C(=O)O/N=C(\N)Cc2ccc(Cl)c(Cl)c2)cc1OC` gave an inhibition of 56.8%.
`Cc1nc(N2CCN(c3ccccc3)CC2)c2c3c(sc2n1)CCC3` gave an inhibition of 53.3%.
In the case of `Cc1ccc(-c2csc3ncnc(N4CCc5ccccc5C4)c23)cc1`, the inhibition was -8.89%.
Work on `COc1ccc(NC(=O)c2ccc(Cl)c(S(=O)(=O)N3CCc4ccccc4C3)c2)cn1` yielded an inhibition of 44.5%.
In the case of `CCc1ccccc1N1C[C@@]23C=C[C@@H](O2)C(C(=O)OCC(C)C)[C@H]3C1=O` (some centres not stated), the inhibition was 15.9%.
